# Measurements published in the supplement of paper PMC12217912.
# The list shows a part of the results. Sequences were assembled here from the parent chain. Inactive controls read about 0.05.
# B1: TEV protease; numbered along this chain (parent)
# chain: MGESLFKGPRDYNPISSSICHLTNESDGHTTSLYGIGFGPFIITNKHLFRRNNGTLVVQSLHGVFKVKDTTTLQQHLVDGRDMIIIRMPKDFPPFPQKLKFREPQREERICLVTTNFQTKSMSSMVSDTSCTFPSGDGIFWKHWIQTKDGQCGSPLVSTRDGFIVGIHSASNFTNTNNYFTSVPKNFMELLTNQEAQQWVSGWRLNADSVLWGGHKVFMVKPEEPFQPVKEATQL
# Variants of: B1
# Test: raw area under fraction-flipped curve 0-4 h after induction (AUC4h, not background-subtracted), DNA-recorder readout of cleavage of the substrate (dimensionless); higher = more cleavage of the substrate by the protease variant
# Details: temperature: 34 °C; time window: 0-4 h after rhamnose induction
# Protocol: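 In vivo DNA recorder in E. coli TOP10(DE3) ΔrhaA at 34 °C. Each TEVp single-site mutant (parent TEVp 0) is paired with a single-site variant of the 7-mer TEVs (canonical ENLYFQ|S). The substrate sits between flexible linkers in a Bxb1-sfGFP-TEVs-SsrA fusion, so cleavage stabilises Bxb1 and speeds flipping of a recombination array, read by NGS. The value is the raw area under the fraction-flipped curve over 0-4 h after rhamnose induction (AUC4h), with ≥20 reads per time point. It is not background-subtracted; inactive controls average about 0.047.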
# 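Further: Bxb1 expression induced with 0.2% (w/v) L-rhamnose at OD600 near 0.5, cultures sampled hourly, flipped fraction per protease–substrate barcode pair counted by paired-end Illumina sequencing.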
Variant,area with substrate CNLYFQS,area with substrate FNLYFQS,area with substrate GNLYFQS,area with substrate HNLYFQS,area with substrate INLYFQS,area with substrate KNLYFQS,area with substrate MNLYFQS,area with substrate NNLYFQS,area with substrate PNLYFQS,area with substrate SNLYFQS,area with substrate TNLYFQS,area with substrate WNLYFQS,area with substrate YNLYFQS,area with substrate LNLYFQS,area with substrate RNLYFQS,area with substrate VNLYFQS,area with substrate QNLYFQS
T31C,0.0719,0.0703,0.0622,0.0576,0.0589,0.0602,0.0765,0.0572,0.0683,0.0669,0.0689,0.0498,0.0642,,,,
T31G,0.0611,0.0517,0.0485,0.0597,0.0631,0.0782,0.0654,0.064,0.0632,0.0613,0.0567,0.0522,0.0435,0.0532,0.053,0.064,
T31R,0.0811,,0.0546,0.0812,,,,,0.0549,,0.0597,0.0598,0.0565,0.068,,0.0599,0.0584
H29Y,0.157,,,0.0842,0.0649,0.018,,0.0838,0.0633,,,0.0543,,0.031,0.0274,,
H29W,0.0794,0.0604,0.0556,0.0695,0.0517,0.0654,0.0661,0.0754,0.0962,0.0806,0.0701,0.0469,0.0643,,,0.0673,
H29Q,0.0741,0.068,0.0632,,,,,,0.0523,,0.0652,0.0533,,0.0955,,,
L22A,0.0415,0.0552,0.0609,0.0606,0.0405,0.0444,0.0629,,0.057,0.0468,0.0559,0.0521,,,,0.0427,0.0625
E25A,0.0572,0.0779,0.0536,0.0735,0.0726,0.0699,0.0782,,0.0737,0.0716,0.064,0.062,0.0623,0.0783,,0.0694,0.0339
S18V,0.0765,0.112,,0.0544,0.0603,0.0737,,0.0619,0.0769,0.0672,0.0687,0.0576,,,0.0533,0.0647,
S18P,0.0088,,0.054,0.0439,0.0422,0.044,0.0517,0.0802,0.0539,0.0411,,0.0472,,0.0587,,0.0519,
S18F,0.058,,0.0745,0.0614,0.0592,0.0627,,0.0613,0.0631,0.0641,0.0634,0.0545,0.0539,0.071,0.0598,,
S18Y,0.0672,,,0.067,,0.0772,,,0.0574,0.0658,0.0669,0.0567,0.0633,0.0552,,,0.0598
I36N,0.0524,0.0517,0.0537,0.0532,0.0755,0.0484,0.0462,0.0474,,0.0522,0.0459,0.037,0.0509,,,0.043,0.0672
I36C,0.0715,0.0513,0.0631,0.066,,0.0715,0.0674,,0.0665,0.056,0.051,0.0523,0.0626,0.0571,,0.0453,
